Reference: PMC4336329 (PLoS ONE, 2015)
In all, about 310,000 compounds went through this assay and about 14,000 (4.5%) showed an effect of 50% or more. Effects have a minus sign here. The list shows a part of the results.

Target: human ether-à-go-go-related gene (hERG) potassium channel (human, UniProt Q12809)
Test: primary screen, population patch clamp on CHO cells stably expressing hERG
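Also: peak tail current of the secondary pulse compared with the same well before compound.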

human ether-à-go-go-related gene (hERG) potassium channel, sequence (Q12809 whole entry, looked up): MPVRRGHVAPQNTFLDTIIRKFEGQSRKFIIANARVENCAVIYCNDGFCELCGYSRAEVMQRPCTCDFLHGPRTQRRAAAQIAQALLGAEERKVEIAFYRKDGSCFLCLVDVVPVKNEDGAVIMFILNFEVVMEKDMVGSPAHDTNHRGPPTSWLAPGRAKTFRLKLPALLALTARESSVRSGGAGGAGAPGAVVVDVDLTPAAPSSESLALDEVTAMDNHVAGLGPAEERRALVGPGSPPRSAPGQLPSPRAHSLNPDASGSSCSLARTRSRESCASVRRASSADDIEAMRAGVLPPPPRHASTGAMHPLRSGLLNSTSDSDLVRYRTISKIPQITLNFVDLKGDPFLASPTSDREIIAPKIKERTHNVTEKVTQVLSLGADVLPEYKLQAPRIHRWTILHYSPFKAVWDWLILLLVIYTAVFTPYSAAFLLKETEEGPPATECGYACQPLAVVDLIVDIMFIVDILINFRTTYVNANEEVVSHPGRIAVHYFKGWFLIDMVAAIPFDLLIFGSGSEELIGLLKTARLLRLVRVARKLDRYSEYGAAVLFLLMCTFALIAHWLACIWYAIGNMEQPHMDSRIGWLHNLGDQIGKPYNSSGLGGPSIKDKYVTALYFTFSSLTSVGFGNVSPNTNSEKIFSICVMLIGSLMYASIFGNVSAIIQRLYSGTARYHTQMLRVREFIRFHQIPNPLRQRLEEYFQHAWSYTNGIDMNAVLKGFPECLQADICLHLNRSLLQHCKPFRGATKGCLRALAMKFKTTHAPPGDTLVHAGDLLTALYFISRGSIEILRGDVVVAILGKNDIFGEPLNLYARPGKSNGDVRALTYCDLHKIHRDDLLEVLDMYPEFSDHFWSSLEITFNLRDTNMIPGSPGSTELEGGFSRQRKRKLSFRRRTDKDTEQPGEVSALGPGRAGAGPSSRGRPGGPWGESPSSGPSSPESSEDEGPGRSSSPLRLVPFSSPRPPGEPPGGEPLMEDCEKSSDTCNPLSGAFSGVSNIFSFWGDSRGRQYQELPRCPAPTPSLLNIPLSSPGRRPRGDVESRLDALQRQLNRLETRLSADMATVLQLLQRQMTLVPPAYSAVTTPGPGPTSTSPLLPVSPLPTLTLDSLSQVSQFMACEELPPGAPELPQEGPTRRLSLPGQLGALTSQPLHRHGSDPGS

Row | SMILES | hERG current change (%, negative = inhibition) at 10uM [%]
1 | COc1ccc2c(c1)c1nc3ccccc3nc1n2Cc1ccc(OC)c(OC)c1 | 24.5
2 | O=C(N/N=C/c1ccc(N2CCOCC2)o1)c1cccc([N+](=O)[O-])c1 | -7.67
3 | CCOc1ccc(-c2c(C(=O)N/N=C(\C)c3cccs3)nnn2-c2nonc2N)cc1 | 12.9
4 | COc1ccc(CNC(=O)c2cc(=O)c3c(C)cc(C)cc3o2)cc1 | 5.63
5 | COc1ccccc1NC(=O)COC(=O)CNC(=O)c1ccc(OC)c(OC)c1 | -0.0486
6 | Fc1ccccc1N1CCN(C2CCCN(Cc3cccc(C(F)(F)F)c3)C2)CC1 (centres unmarked) | -52.1
7 | O=C(O)c1ccc2c(c1)C(=O)N(NC(=O)c1ccc(O)cc1)C2=O | 46.9
8 | COc1ccc(CNC(=O)CSc2nn3c(=O)c(C(C)(C)C)nnc3s2)cc1OC | -2.41
9 | O=C(O)Cc1ccc(NC(=O)c2cnccn2)cc1 | 26.1
10 | CN1CCCCC1=NCCCn1cnc2c1c(=O)n(C)c(=O)n2C.Cl | 9.4
11 | COC(=O)C1(C(=O)OC)NOC2C(=O)N(N(C)c3ncc(C(F)(F)F)cc3Cl)C(=O)C21 (centres unmarked) | 24.1
12 | CC1CC1C(=O)OCC(=O)NNC(=O)COc1ccc(Br)cc1 (centres unmarked) | -7.8
13 | O=C(N/N=C/c1cccnc1)c1ccccc1[N+](=O)[O-] | -13.8
14 | CC(C)CC(C(=O)NC(=O)NCc1ccccc1)N1C(=O)c2ccccc2C1=O (centres unmarked) | 8.22
15 | COc1ccc(S(=O)(=O)Nc2ccc(O)c(Sc3nc4ccccc4s3)c2)cc1 | 19.8
16 | COc1cc(C2c3c(-c4ccccc4)n[nH]c3C(=O)N2c2ccc(C(=O)O)cc2)ccc1O (centres unmarked) | 8.38
17 | CC1=C(C(=O)OC(C)C)C(c2ccccc2)NC(=S)N1C (centres unmarked) | 2.43
18 | O=C(NC1CCN(S(=O)(=O)c2ccc(F)cc2)CC1)c1ccc(F)cc1 | 4
19 | CC(=O)Cc1nsc(Nc2ccccc2)n1 | 13.5

Row | SMILES | hERG current change (%, negative = inhibition) at 10uM [%]
20 | CCn1c(SCC(=O)Nc2ccc3c(c2)OCO3)nnc1C(C)C | -5.58
21 | COc1ccc(-c2n[nH]c(=S)n2/N=C/c2cccn2C)cc1 | 13.2
22 | COC(=O)Cn1cnc2sc(C)c(S(=O)(=O)N3CCN(c4ccccc4OC)CC3)c2c1=O | -5.55
23 | COc1ccc(OCCCN2CCCCCC2)cc1.O=C(O)C(=O)O | -19.3
24 | CN(C)CCNC(=S)Nc1ccc(Cl)cc1Cl.Cl | -12.3
25 | O=C(CNC(=O)C(c1ccccc1)c1ccccc1)N/N=C\c1ccc2c(c1)OCO2 | 8.08
26 | O=C(NC1CCCC1)c1ccc2c(c1)N(Cc1ccccc1)CCS2 | -10.9
27 | Cc1ccc(S(=O)(=O)N(C)C)cc1NC(=O)COC(=O)c1c(C)noc1C | -5.78
28 | CCN1CC2=C(OC(N)=C(C#N)C2c2ccccc2)/C(=C\c2ccccc2)C1 (centres unmarked) | -6.02
29 | COc1ccc2c(C)c(CCC(=O)NC3CC3)c(=O)oc2c1 | 7.88
30 | Cc1cc(C)cc(C(=O)NC(CC(N)=O)c2ccc(N3CCN(C)CC3)c([N+](=O)[O-])c2)c1 (centres unmarked) | 14.5
31 | c1ccc(-c2ncc3ccccn23)cc1 | -3.24
32 | COc1ccc(Nc2ccccc2C(=O)O)cc1 | 12
33 | COc1ccc(NC(=O)Nc2ccccc2OC)cc1 | -7.12
34 | CCN1CCN(c2c(C(=O)c3ccc(OC)cc3)cnc3ccccc23)CC1 | -80.3
35 | COc1cc(-c2nnc(SCc3ccccc3Cl)o2)cc(OC)c1OC | 2.94
36 | Cc1cccc(C)c1NC(=O)Cn1nnnc1N | 10.4
37 | COc1ccc(N2CCN(CCCNC(=S)Nc3c(C)cccc3C)CC2)cc1 | -52.4
38 | Cc1ccc(Cl)cc1-n1c(=O)cc(N2CCN(C(=O)c3ccco3)CC2)[nH]c1=O | 6.02

Row | SMILES | hERG current change (%, negative = inhibition) at 10uM [%]
39 | Cl.N=c1c2c(n(Cc3ccc(F)cc3)c3c1CCC3)CCCC2 | -11.6
40 | Cc1c(C(=O)NCCSCc2c(F)cccc2Cl)cnn1-c1ccc(F)cc1 | -45.7
41 | O=C(N/N=C\c1ccc(F)cc1)c1ccc(Cn2cc(Br)c([N+](=O)[O-])n2)o1 | -59.9
42 | O=[N+]([O-])c1ccc(C=Nc2ccc(Cl)cc2Cl)s1 | -5.42
43 | O=C(NNC(=S)NC1CC2C=CC1C2)c1cccnc1 (centres unmarked) | 18.9
44 | COc1ccccc1N1CCN(/N=C\c2sccc2C)CC1 | -3.44
45 | CCCNC(=O)C(Cc1ccccc1)NC(=O)c1ccc(C(C)(C)C)cc1 (centres unmarked) | -8.27
46 | O=C(NNS(=O)(=O)c1ccccc1C(F)(F)F)c1cccc(S(=O)(=O)Nc2ccccc2Cl)c1 | -4.15
47 | Cc1ccc(OCC(=O)NC(C)c2ccc(Cl)c(Cl)c2)c([N+](=O)[O-])n1 (centres unmarked) | -21.4
48 | O=C(NCC1CCCO1)C1CCN(S(=O)(=O)Cc2ccccc2)CC1 (centres unmarked) | 9.86
49 | CC(OC(=O)c1cccc(NS(C)(=O)=O)c1)C(=O)Nc1ccc2c(c1)OCO2 (centres unmarked) | -36.3
50 | Cc1nn(C(C)CC(=O)O)c(C)c1Br (centres unmarked) | 10.4
51 | COc1ccccc1CNC(=O)c1cc(-c2cccnc2)nc2ccccc12 | -12.1
52 | CC(=O)N(c1cccc(Br)c1)c1nc(C)cc(C)c1C#N | 8.79
53 | CC(C)(C)n1nnnc1C(c1cccnc1)N(Cc1ccccc1)Cc1cccs1 (centres unmarked) | -11.2
54 | COc1ccc(NC(=O)c2cc(-c3ccccc3)on2)cc1OC | 19.5
55 | O=C(CCC(=O)NC1CCN(Cc2ccccc2)CC1)NCc1ccco1 | -1.88
56 | CN(Cc1ccccc1)C(=O)Cn1cccc1C(=O)c1ccccc1 | 14.6
